# ChEMBL document CHEMBL4888484, “Replenishing the malaria drug discovery pipeline: Screening and hit evaluation of the MMV Hit Generation Library 1 (HGL1) against asexual blood stage Plasmodium falciparum ,using a nano luciferase reporter read-out” (2022)
# About 540 (0.36%) of roughly 150,000 compounds showed an effect of 50% or more. This is one part of the list.
# Test system: Plasmodium falciparum
# Test: Primary screen in NF54 nanoGlo assay, in single point, at 2uM, 72h; a lower Z score goes with more inhibition
# Format: functional, Erythrocyte
# Details: timepoint 72 hour
SMILES,% Inhibition,Z score
CN(CCc1ccccn1)[C@H]1CCc2ccccc2C1,-9%,1.19
Cc1cc(C)nc(Cn2cc(-c3ccc(C)c(F)c3F)nn2)n1,-16%,1.9
Cc1cccc(NC(=O)Cn2nc3cnc4ccccc4n3c2=O)c1C,-6%,0.69
CCS(=O)(=O)N(CCN1CCCCC1)C1CN(C(=O)COc2ccc(F)cc2)C1,-3%,0.44
O=C(CN(Cc1ccco1)[C@H]1CCS(=O)(=O)C1)c1c[nH]c(C(=O)N2CCCC2)c1,-2%,0.29
Cc1cnc(C2CC2)n1[C@H]1CCN(S(=O)(=O)c2ccc3c(c2)OCCO3)C1,-4%,0.48
CC(C)c1cc(C(=O)N[C@H]2CCOc3ccccc32)n[nH]1,-12%,1.58
CC(C)[C@H](C)N1Cc2cccc(N)c2C1,0%,0.01
Cc1[nH]c2ccccc2c1CN1CCC(n2nccc2NC(=O)c2ccccc2)CC1,2%,-0.18
O=c1[nH]c2ccc(S(=O)(=O)NCc3ccccc3)cc2c2ccccc12,-4%,0.53
Cn1nc(C(=O)NC2CCCC2)c2c1CCNC2,-14%,1.79
CC[C@H](NC(=O)C1(C)COC1)c1cc(C)ccn1,-16%,1.74
Cc1cc(=O)n(CC(=O)Nc2ccc(C)c(F)c2)c(N2CCc3ccccc3C2)n1,-19%,1.71
O=C(c1cc(-c2ccc(Cl)s2)nc2ccccc12)N1CCN(c2ncccn2)CC1,-7%,1.02
COc1cc(NC(=O)CCc2ccnn2C)cc(-n2cnnn2)c1,1%,-0.14
Cc1cc(C)n(C(=O)COc2ccc(-c3ccccc3)cc2)n1,-2%,0.31
CCn1nc(CN2CCC(NC(=O)c3ccc(OC)nc3)CC2)c2c1CCOC2,7%,-1.09
C[C@@H](C(=O)N1CCC(c2nc3c(s2)CCC3)CC1)n1cncn1,-13%,1.88
Cc1cc(C)n(-c2ccc(Cn3nc(C(N)=O)ccc3=O)cc2)n1,4%,-0.69
O=C(CCCNC(=O)c1cc(F)c(F)c(F)c1)Nc1cn[nH]c1,-16%,2.31
CCc1cc(C(=O)N[C@@H]2COCC[C@@H]2OCC2CCC2)ccn1,-4%,0.62

SMILES,% Inhibition,Z score
CCC1(CC)C(=O)N=C(Nc2cccc(C(F)(F)F)c2)NC1=O,11%,-2.13
CC(C)CS(=O)(=O)N1CC(Oc2ccccc2)C1,-31%,2.73
Cc1ccoc1C(=O)N1CCC(CNC(=O)C2CCCC2)CC1,-3%,0.34
Cc1cc(CNC(=O)C2CC(O)(C3CCCCC3)C2)n(C)n1 (stereo not drawn),-4%,0.59
CC1(C)Cc2ccc(Cl)c(NC(=O)N[C@H]3CCN(C4CCC4)C3=O)c2O1,0%,0.04
CCn1nc(C)c(-c2cc(-c3c[nH]nc3C(=O)OC)c(C#N)c(N)n2)c1C,-16%,2.39
CN(C)S(=O)(=O)N1CCC[C@H]1c1nn(CCOc2ccccc2)c2c1COCC2,-8%,1.04
COCc1nc2n(n1)[C@@H](c1ccco1)C[C@@H](C)N2,-2%,0.2
Cc1ccc(S(=O)(=O)NC[C@H]2CC3c4ccccc4C2c2ccccc23)cc1,-2%,0.26
Cc1nnc(NCC2CCS(=O)(=O)CC2)c(C#N)c1C,23%,-2.63
CCC[C@H](C)NC(=O)c1ccc(C)cc1Cl,-7%,1.03
Cc1cnn(CCCn2ccnc2-c2cccc3nonc23)c1,0%,-0.01
Cc1cccc(N2CCN(C(=O)c3ccc([C@H]4CCCNC4)cc3)CC2)c1C,7%,-0.94
O=C1CC[C@](CCC(=O)N2CCCC2)(Cc2cccc3ccccc23)N1,-3%,0.38
Cn1c(CN2CCOCC2)nnc1[C@H]1CCCN(c2nccc(N)n2)C1,-14%,2.72
C[C@@H](Cc1cccnc1)Nc1cc(-c2ccccc2F)nc2ccnn12,-6%,1.04
Cn1c(-n2nc(C3CCOCC3)nc2-c2cn[nH]c2)nc2ccccc21,-16%,1.47
COCC(=O)NC[C@]1(O)CCCN(C(=O)NCc2cccc(F)c2)CC1,0%,-0.02
O=C(NC1CCCC1)[C@H]1CC(=O)N(Cc2cccc(C(F)(F)F)c2)C1,-2%,0.33
COc1nccnc1N1CC[C@H](N2CCOCC2)[C@H](CCCO)C1,-7%,1.27
O=S1(=O)N=C(NC(c2ccccc2)c2ccccc2)c2ccccc21,-8%,1.15

SMILES,% Inhibition,Z score
Cc1cc(C(=O)N2CC(C)CC(C)C2)nc2c1c(-c1ccccc1)nn2-c1cccc(F)c1 (stereo not drawn),5%,-0.67
CCc1nc2c(s1)[C@@H](N(C)Cc1cncn1CC)CCC2,0%,-0.04
C=CC[C@]1(CO)CCCN(c2cc(N3CCCC3)nc(N)n2)C1,-3%,0.44
Cc1nscc1C(=O)NC[C@H](O)c1ccc(OC(F)(F)F)cc1,-2%,0.15
CCc1nc(C)c(CNC(=O)c2cc3cc(C)ccn3n2)s1,-18%,2.33
CC(=O)N1CCc2cc(N3C[C@@H](C(=O)Nc4cc(F)ccc4F)CC3=O)ccc21,-4%,0.74
O=C1[C@H]2[C@@H](C(=O)N1c1ccc3c(c1)OCO3)[C@]1(C(=O)Nc3c(Cl)cccc31)N1CCC[C@@H]21,-3%,0.44
O=C(N(C1CCCCC1)C1CCCCC1)C(F)(F)C(F)(F)C(F)(F)F,8%,-1.54
Cc1nn(C(C)C)c(C)c1CN(C)C(=O)c1nnc(CN(C)C)o1,-3%,0.38
Nc1ccc2c(c1)[nH]c(=O)n2-c1cccc(Cl)c1,-13%,1.56
Cc1ccc(S(=O)(=O)N2C[C@@H](F)C[C@H]2C(=O)N2CCc3ccccc3C2)c(C)c1,-7%,0.78
OC[C@H]1COc2ccccc2[C@H]1NCc1ccccn1,6%,-0.68
Cc1ccc(-c2ncc(C(=O)N3CCCC[C@@H]3CN)c(O)n2)cc1,-8%,1.15
CN(C)C(=O)CCCS(=O)(=O)CC(=O)N1CCCCCC1,-17%,1.41
O=C(Nc1cccc(-c2ccc(N3CCCCC3)nn2)c1)Nc1ccccc1Cl,-3%,0.44
CN(CCN1CCOCC1)Cc1cccn1S(=O)(=O)c1ccccc1,-5%,0.59
O=C(COc1ccnc2c1CCCC2)NCc1ccc2c(c1)OCO2,-9%,1.53
O=C1CCCN1CCNc1nccc2occc12,-6%,1.16
O=C(O)c1cccc(NCC2(O)Cc3ccccc3C2)n1,0%,-0.03
Cc1ccc(C(=O)c2ccccc2C(=O)NCC2CC2)cc1C,-3%,0.49
Cc1ccc(N2CCN(c3ccc(C)cc3)C2c2ccc(OCc3ccccc3F)cc2)cc1,1%,-0.12

SMILES,% Inhibition,Z score
CC1CCCN(C2CCC(=O)N(Cc3cccc(F)c3)CC2)C1 (stereo not drawn),-1%,0.21
CN(C)C(=O)[C@H]1CCCN(Cc2cccn2C)C1,-6%,1.08
Cn1ccc2c(-c3cc(C(=O)N4CCOCC4)ccn3)ccnc21,-22%,2.39
CC(=O)N1CC2(CCN(C/C=C/c3ccccc3)CC2)C[C@H]1C(=O)O,-10%,0.95
CCOc1ccc(NC(=O)N(C)C[C@H](C)c2nccs2)cn1,3%,-0.41
O=C(NCc1nc2ccccc2s1)N1CCCC1,-6%,1.26
O=C(Nc1ccc2c(c1)CCCN2)N1CCO[C@H](c2nccs2)C1,-11%,1.65
CCCc1nc(C)c(C(=O)N2CC[C@H](CN)C2)s1,1%,-0.09
COc1cccc(-c2c[nH]c([C@@H]3COCCN3C3CCOCC3)n2)c1,-7%,0.84
CCC(=O)Nc1nnc(C(CC)CC)s1,-18%,2.59
CCN1C(=O)c2cc(S(=O)(=O)Nc3ccc(C)cc3F)ccc2Oc2cccnc21,-5%,0.79
CCc1ccc(C(C)NC2CCOc3c(F)cccc32)cc1 (stereo not drawn),-10%,1.81
Cc1cc(C(=O)N2CCC3(CCC(=O)N(CCc4cccnc4)C3)CC2)[nH]n1,3%,-0.36
COc1ccccc1N1CCN(C(=O)Cn2ccc3ccc(N4CCOCC4)nc32)CC1,3%,-0.55
Cc1cc(CNC(=O)[C@@H]2COCC(=O)N2Cc2ccccc2)on1,-7%,0.66
CN(C)C(=O)c1cncc(C2=CN(C(=O)OC(C)(C)C)CCCC2)c1,-2%,0.38
CCc1ccc(C(=O)N2CCc3[nH]nc(C(=O)NC4CCN(C)CC4)c3C2)cc1,6%,-0.98
Cc1ccc(S(=O)(=O)N2CCC(C(=O)OCC(=O)N3CCN(S(C)(=O)=O)CC3)CC2)cc1,-6%,1.14
CN(CCC(=O)c1ccccc1)Cc1ncnn1C,-8%,0.77
CCNc1ncc(C(=O)N[C@H]2CC(=O)N(CC(F)(F)F)C2)s1,-7%,1.13
Nc1nnc(C2CCN(C(=O)CC3CC4CCC3C4)CC2)o1 (stereo not drawn),-1%,0.1
